# Data reported in ChEMBL document CHEMBL3045425, “Isolation and identification of precocenes and piperitone from essential oils as specific inhibitors of trichothecene production by Fusarium graminearum” (J Agric Food Chem, 2009).
# Activity calls are given as the source filed them. No cut-off for these calls is given here.
# System: Fusarium graminearum
# Experiment: Inhibition of 3-acetyldeoxynivalenol production by Fusarium graminearum in liquid culture at 3 to 30 uM at 26.5 degC measured after 48 to 144 hr by thin layer chromatography
smiles,measurement,value
COc1cc2c(cc1OC)OC(C)(C)C=C2 [PROCOCENE II],inhibition,Active
